{
  "source": "PubChem BioAssay AID602233",
  "about": "(National Center for Advancing Translational Sciences (NCATS), 2012)",
  "note": "Hit rate of the full screen: of about 380,000 compounds, about 170 (0.045%) were called active. The shares of active, inactive and inconclusive entries below differ from those in the screen. Calls come from the whole dose curve; as a rule, active = well fitted inhibition curve with a large enough effect; inconclusive = small, poorly fitted or top-dose-only effect; inactive = no such curve, though single readings can be large or run the other way. No potency is given beside an inconclusive call; the fits are too rough. Potency is the fitted concentration of half-maximal effect; tags give direction and shape of the fitted curve.",
  "data": [
    {"molecular_target": "Phosphoglycerate kinase, glycosomal (Trypanosoma brucei brucei) (UniProt P07378)", "experiment": "qHTS Assay to Find Inhibitors of Phosphoglycerate Kinase; note: nearly all actives have a fitted effect of over 60% in size", "conditions": "PGK/GAPDH coupled, Kinase-Glo luminescence, 60 min; series mostly up to 57.5 µM", "method_in_brief": "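Luminescent ATP detection (Kinase-Glo Plus) follows a 60-minute room-temperature incubation, with wells lacking PGK as controls. Buffer: 100 mM TEA (pH 7.6), 5 mM MgCl2, 0.01% Tween-20. Coupling enzyme GAPDH (100 nM final) supplies unstable 1,3-BPG in-well.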", "values": [
      {"smiles": "O=C(Nc1ccc2c(c1)OCCO2)c1coc2ccccc2c1=O", "Potency": "inconclusive [inhibitor, partial curve]"},
      {"smiles": "CC(C)=CC(=O)OCC(=O)Nc1ncc(Cl)c(C)c1Cl", "Potency": "inactive"},
      {"smiles": "O=C(c1ccc2nc(-c3ccco3)c(-c3ccco3)nc2c1)N1CCN(c2ncccn2)CC1", "Potency": "inactive"},
      {"smiles": "Oc1ccc(C2=Nn3c(nnc3-c3ccco3)SC2)cc1O", "Potency": "inconclusive [inhibitor, partial curve, poor fit]"},
      {"smiles": "O=C(N/N=C/c1ccsc1)c1ccccn1", "Potency": "inconclusive [inhibitor, partial curve, poor fit]"},
      {"smiles": "C/C(=N\\NC(=O)CN1CCN(S(=O)(=O)c2ccc(C)cc2)CC1)c1cccnc1", "Potency": "inconclusive [inhibitor, partial curve]"},
      {"smiles": "CCOC(=O)C1=C(C)N(C)C(=O)C1CC(=O)O", "note": "(configuration not stated)", "Potency": "inconclusive [inhibitor, single point]"},
      {"smiles": "Cc1ccc(NC(=O)CSCn2nnc3c(=O)[nH]c(Cc4ccc(F)cc4)nc32)c(C)c1", "Potency": "inconclusive [inhibitor, single point]"},
      {"smiles": "Cc1ccc2nsnc2c1NS(=O)(=O)c1c(C)ccc2nsnc12", "Potency": "inactive"},
      {"smiles": "O=C(CSc1nnc(SCc2ccc(Cl)cc2)s1)N/N=C/c1c[nH]c2ccccc12", "Potency": "inconclusive [inhibitor, single point]"},
      {"smiles": "COC(=O)c1ccc(N2NC(=O)/C(=C/c3ccc(-c4ccc(Cl)c(C(=O)O)c4)o3)C2=O)cc1", "Potency": "inconclusive [inhibitor, single point]"},
      {"smiles": "COc1ccc(NCc2nc3ccccc3n2C)cc1", "Potency": "inconclusive [inhibitor, partial curve, poor fit]"},
      {"smiles": "Cc1ccc(C(=O)ONc2ccc(N=O)cc2)cc1", "Potency": "inconclusive [inhibitor, partial curve, poor fit]"},
      {"smiles": "COc1ccc(/C=C/c2nc3ccccc3n2C)cc1", "Potency": "inconclusive [inhibitor, partial curve, poor fit]"},
      {"smiles": "c1ccc(-c2noc(-c3cccs3)n2)nc1", "Potency": "inconclusive [inhibitor, partial curve]"},
      {"smiles": "COc1cc(/C=C2/NC(=O)NC2=O)cc(Br)c1OCc1ccc(C(=O)O)cc1", "Potency": "inconclusive [inhibitor, single point]"},
      {"smiles": "CC1CCN(c2ccc(NC(=O)c3cccc(Cl)c3)cc2C(=O)O)CC1", "Potency": "inconclusive [inhibitor, single point]"},
      {"smiles": "COc1cc(/C=C2\\SC(=O)N(CC(=O)Nc3ccccc3F)C2=O)cc(Cl)c1O", "Potency": "inconclusive [inhibitor, single point]"},
      {"smiles": "Cc1cccc(C)c1NC(=S)N1CC(C)OC(C)C1", "note": "(configuration not stated)", "Potency": "inconclusive [inhibitor, partial curve, poor fit]"},
      {"smiles": "COC1=CC(=O)c2c(ccc3ncnc(N)c23)C1=O", "Potency": "inconclusive [inhibitor, single point]"},
      {"smiles": "Cc1occc(=O)c1OC(=O)Nc1ccc(Cl)c(Cl)c1", "Potency": "inactive"},
      {"smiles": "CCOC(=O)N1CCN(C(=S)Nc2ccccc2C(C)C)CC1", "Potency": "inconclusive [inhibitor, single point]"},
      {"smiles": "COc1ccc(S(=O)(=O)Nc2cccc(-c3ccc(N4CCOCC4)nn3)c2)cc1F", "Potency": "inactive"},
      {"smiles": "Oc1cccc(-c2nnc(-c3cccc(O)c3)nn2)c1", "Potency": "inconclusive [inhibitor, partial curve, poor fit]"},
      {"smiles": "CCOC(=O)C1CCN(C(=O)Nc2ccc3nc(-c4ccco4)c(-c4ccco4)nc3c2)CC1", "Potency": "inconclusive [inhibitor, partial curve]"},
      {"smiles": "COc1ccccc1N/C=C/c1onc(C)c1[N+](=O)[O-]", "Potency": "inconclusive [inhibitor, partial curve, poor fit]"},
      {"smiles": "O=C(O)CCNc1ccc(NCCC(=O)O)c2c1C(=O)c1ccccc1C2=O", "Potency": "inconclusive [inhibitor, partial curve]"},
      {"smiles": "O=C(COC(=O)C1CC(=O)N(Cc2ccco2)C1)c1ccc(OC(=O)c2ccccc2)cc1", "note": "(configuration not stated)", "Potency": "inconclusive [inhibitor, single point]"},
      {"smiles": "COc1ccc(NC(=O)c2noc3c2CCC3)cc1", "Potency": "inconclusive [inhibitor, partial curve]"},
      {"smiles": "COc1cccc(/C=N/Nc2ncccc2[N+](=O)[O-])c1OC", "Potency": "inconclusive [inhibitor, partial curve]"},
      {"smiles": "Cc1cccc(/C(N)=N/OC(=O)c2ccc(Cl)cc2Cl)c1", "Potency": "inconclusive [inhibitor, partial curve, poor fit]"},
      {"smiles": "O=C(O)CC(C(=O)O)N1C(=O)/C(=C/C=C/c2ccco2)SC1=S", "note": "(configuration not stated)", "Potency": "active: 4.47 µM"},
      {"smiles": "CSc1nc2n(n1)C(c1ccccn1)C1=C(CC(C)(C)CC1=O)N2", "note": "(configuration not stated)", "Potency": "inconclusive [inhibitor, single point]"},
      {"smiles": "COC(=O)[C@@H](NC(=O)c1ccccc1OC1CCN(S(C)(=O)=O)CC1)C(C)C", "Potency": "inconclusive [inhibitor, single point]"},
      {"smiles": "C/C(=N/OC(=O)c1ccc(C)cc1)c1cccs1", "Potency": "active: 31.6 µM"},
      {"smiles": "O=C(N/N=C/c1sc(=O)n(-c2ccccc2)c1Cl)c1ccncc1", "Potency": "inconclusive [inhibitor, partial curve, poor fit]"},
      {"smiles": "COc1ccc(S(=O)(=O)c2nnn(-c3cc(Cl)c(OC)cc3OC)c2C)cc1", "Potency": "inconclusive [inhibitor, partial curve, poor fit]"},
      {"smiles": "CC1=NN(c2nc(-c3ccc(C)cc3)cs2)C(=O)C1N=Nc1cccc(O)c1", "note": "(configuration not stated)", "Potency": "inactive"},
      {"smiles": "CCN1CCN(C(=S)Nc2cc(C(=O)OC)ccc2C(=O)OC)CC1", "Potency": "inconclusive [inhibitor, single point]"},
      {"smiles": "O=C(O)C1C2C=CC(C2)C1C(=O)Nc1ccccc1Br", "note": "(configuration not stated)", "Potency": "inconclusive [inhibitor, partial curve, poor fit]"},
      {"smiles": "Cc1ccc(Cl)cc1N1CCN(C(=O)c2cc3c(-c4ccccc4F)nn(C)c3s2)CC1", "Potency": "inconclusive [inhibitor, single point]"},
      {"smiles": "C=CC[n+]1ccc(/C=C2\\C=Cc3cc(C)ccc3N2CC)c2ccccc21", "Potency": "inconclusive [inhibitor, single point]"},
      {"smiles": "O=C(O)CN1C(=O)C=CC1=O", "Potency": "inconclusive [inhibitor, partial curve]"},
      {"smiles": "CC(=O)c1c(C)[nH]c(C(=O)COc2ccc3ccc(=O)oc3c2)c1C", "Potency": "inconclusive [inhibitor, single point]"},
      {"smiles": "CCOC(=O)C1CCN(C(=O)Nc2ccc(OC(F)(F)F)cc2)CC1", "Potency": "inconclusive [inhibitor, single point]"},
      {"smiles": "CCOCCCN(Cc1ccco1)C(=O)c1cc2c(=O)[nH]c3ccc(C)cc3c2s1", "Potency": "inactive"},
      {"smiles": "N/C(=N\\OC(=O)c1ccc(F)cc1)c1ccccc1", "Potency": "inconclusive [inhibitor, partial curve]"},
      {"smiles": "CCCCc1c(C)nc2ccc(OC)cc2c1SCCC(=O)O", "Potency": "inconclusive [inhibitor, single point]"},
      {"smiles": "Cn1c(=O)c2c3c(sc2n2c(SCC(N)=O)nnc12)CC(C(C)(C)C)CC3", "note": "(configuration not stated)", "Potency": "inactive"},
      {"smiles": "CC(=O)N1CCc2cc(Br)cc(S(=O)(=O)CCC(=O)Nc3ccc(C)cc3Cl)c21", "Potency": "inconclusive [inhibitor, partial curve, poor fit]"},
      {"smiles": "Cc1ccc(N(CC(C)C)S(=O)(=O)c2nnc(NC(=O)c3cccs3)s2)cc1", "Potency": "inactive"},
      {"smiles": "Fc1cccc(NC(=S)NCCCN2CCOCC2)c1", "Potency": "inconclusive [inhibitor, partial curve, poor fit]"},
      {"smiles": "O=C(N1CCOCC1)N1CCN(S(=O)(=O)N2CCOCC2)CC1", "Potency": "inconclusive [inhibitor, single point]"},
      {"smiles": "COc1ccc(S(=O)(=O)Nc2c3ccccc3nc(=O)n2-c2ccccc2)cc1", "Potency": "inactive"},
      {"smiles": "Cn1c(=O)c2c(nc(Oc3cccc(Br)c3)n2C)n(C)c1=O", "Potency": "inactive"},
      {"smiles": "O=Nc1c2cc(-c3ccccc3)[nH]nc-2c2ccccc12", "Potency": "inconclusive [inhibitor, partial curve, poor fit]"},
      {"smiles": "O=C(CSc1ccc(-c2ccco2)nn1)c1ccc(F)cc1", "Potency": "inactive"},
      {"smiles": "CCOC(=O)C1=C(COC(=O)/C=C/c2ccco2)NC(=O)NC1C", "note": "(configuration not stated)", "Potency": "inconclusive [inhibitor, single point]"},
      {"smiles": "Nc1cc(S(=O)(=O)Nc2ccccc2Cl)ccc1N1CCCCC1", "Potency": "inactive"},
      {"smiles": "O=C(NC1CCCC1)c1ccc2nc(-c3ccco3)c(-c3ccco3)nc2c1", "Potency": "inactive"},
      {"smiles": "O=C(O)CCCCCNC(=O)CCn1cnc2ccccc2c1=O", "Potency": "inactive"},
      {"smiles": "CC(=O)NS(=O)(=O)c1ccc(NC(=S)Nc2ccccc2)cc1", "Potency": "inconclusive [inhibitor, single point]"},
      {"smiles": "CCN1/C(=C2\\C(=O)N(C)C(=S)N2c2ccccc2)C=Cc2ccccc21", "Potency": "inconclusive [inhibitor, single point]"},
      {"smiles": "COc1ccccc1NS(=O)(=O)c1cc(NC(=O)c2ccc3c(c2)OCCO3)ccc1C", "Potency": "inconclusive [inhibitor, full curve]"},
      {"smiles": "Nc1nn(-c2ccccc2)nc1C(=O)OCc1c(F)cccc1Cl", "Potency": "inactive"},
      {"smiles": "c1ccc(CSc2nnc(-c3ccco3)c(-c3ccco3)n2)cc1", "Potency": "inconclusive [inhibitor, single point]"},
      {"smiles": "O=C(NCc1ccco1)c1ccc2c(=O)n(Cc3ccco3)c(SCC(=O)N3CCCC3)nc2c1", "Potency": "inconclusive [inhibitor, partial curve]"}
    ]}
  ]
}
